Consider 16 compounds from the supplement of paper PMC4604168 (melanoma cell lines).

This is one part of the list. Single values are uncertain, as repeats are few or missing.
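Note: cells treated in 1,536-well plates, then fixed and DAPI-stained, with nuclei counted from automated high-throughput microscope images.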

In this experiment the test system is A101D. Description: cell count relative to DMSO control; melanoma cells; higher = more viable cells. The settings on record: library dose: standard library concentration; 72 h.
Compound `O=C(O)c1ccc2c(c1)nc(Nc1cccc(Cl)c1)c1ccncc12` + c1cc(-c2cnn3cc(-c4ccc(OCCN5CCCCC5)cc4)cnc23)ccn1 [Dorsomorphin] (first compound 2 µM, partner dose 2 µM) gave a cell count of 71.9%. For `O=C(Nc1cc(C(F)(F)F)cc(C(F)(F)F)c1)c1cc(Cl)ccc1O` + Nc1ccn([C@@H]2O[C@H](CO)[C@@H](O)C2(F)F)c(=O)n1 [gemcitabine] (first compound 0.08 µM, partner dose 0.002 µM) the value was 87.6%. For `Cn1nnc2c(C(N)=O)ncn2c1=O` [temozolomide] + CCc1ccc(CCOc2ccc(CC3SC(=O)NC3=O)cc2)nc1 [pioglitazone] (first compound 10 µM, partner dose 10 µM) the value was 77.3%; for `O=C(O)c1ccc2c(c1)nc(Nc1cccc(Cl)c1)c1ccncc12` + CO[C@@H]1[C@H](N(C)C(=O)c2ccccc2)C[C@H]2O[C@]1(C)n1c3ccccc3c3c4c(c5c6ccccc6n2c5c31)C(=O)NC4 [Midostaurin] (first compound 2 µM, partner dose 0.4 µM), 58.8%; for `Cc1cc(N2CCOCC2)cc2[nH]c(-c3c(NC[C@@H](O)c4cccc(Cl)c4)cc[nH]c3=O)nc12` + CN(NC(=O)CC(=O)NN(C)C(=S)c1ccccc1)C(=S)c1ccccc1 [STA4783] (first compound 1 µM, partner dose 0.03 µM), 75.4%. For `O=C(Nc1cc(C(F)(F)F)cc(C(F)(F)F)c1)c1cc(Cl)ccc1O` + c1cc(-c2cnn3cc(-c4ccc(OCCN5CCCCC5)cc4)cnc23)ccn1 [Dorsomorphin] (first compound 0.08 µM, partner dose 2 µM) the value was 79.8%.

For the compound `O=C(O)c1ccc2c(c1)nc(Nc1cccc(Cl)c1)c1ccncc12` + OCc1c[nH]c2ccccc12 [Indole-3-carbinol] (first compound 2 µM, partner dose 4 µM), the cell count was 111%. In the case of `O=C(Nc1ccccc1)c1cc([N+](=O)[O-])ccc1Cl` + c1cc(-c2cnn3cc(-c4ccc(OCCN5CCCCC5)cc4)cnc23)ccn1 [Dorsomorphin] (first compound 10 µM, partner dose 2 µM) it was 73.5%; in that of `O=C(O)c1ccc2c(c1)nc(Nc1cccc(Cl)c1)c1ccncc12` + OCCn1cc(-c2cnc3nnn(Cc4ccc5ncccc5c4)c3n2)cn1 [PF04217903] (first compound 2 µM, partner dose 5 µM), 92.8%. For `Cc1cc(N2CCOCC2)cc2[nH]c(-c3c(NC[C@@H](O)c4cccc(Cl)c4)cc[nH]c3=O)nc12` + O=C(Nc1cccc(Cl)c1)Nc1ncc(CCNc2ncnc3ccsc23)s1 [SNS314] (first compound 1 µM, partner dose 0.004 µM) the value was 72.6%. In the case of `Cn1nnc2c(C(N)=O)ncn2c1=O` [temozolomide] + Cn1cncc1[C@@](N)(c1ccc(Cl)cc1)c1ccc2c(c1)c(-c1cccc(Cl)c1)cc(=O)n2C [tipifarnib] (first compound 10 µM, partner dose 0.05 µM) it was 93.3%; in that of `Cc1cc(N2CCOCC2)cc2[nH]c(-c3c(NC[C@@H](O)c4cccc(Cl)c4)cc[nH]c3=O)nc12` + COc1cc2c(Oc3ccc4[nH]c(C)cc4c3F)ncnc2cc1OCCCN1CCCC1 [cediranib] (first compound 1 µM, partner dose 2 µM), 76.2%; in that of `O=C(Nc1cc(C(F)(F)F)cc(C(F)(F)F)c1)c1cc(Cl)ccc1O` + COc1ccc(-c2ccc3c(N4CCOCC4)nc(N4C[C@@H](C)O[C@@H](C)C4)nc3n2)cc1CO [KU0063794] (first compound 0.08 µM, partner dose 0.1 µM), 88%. Consider `O=C(O)[C@@H]1[O][Sb](=[O])([O][Sb]2(=[O])[O][C@H]([C@H](O)CO)[C@H](O)[C@H](C(=O)O)[O]2)[O][C@H]([C@H](O)CO)[C@@H]1O` (stereo partly specified) [stibogluconate] + NC(=O)Nc1cc(-c2cccc(F)c2)sc1C(=O)N[C@H]1CCCNC1 [AZD7762] (first compound 10 µM, partner dose 0.1 µM), for which the cell count came out at 63.2%. The compound `Cc1cc(N2CCOCC2)cc2[nH]c(-c3c(NC[C@@H](O)c4cccc(Cl)c4)cc[nH]c3=O)nc12` + CC(C)CCN1c2nc(Nc3cc(F)c(O)c(F)c3)ncc2N(C)C(=O)C1C [BID1870] (first compound 1 µM, partner dose 1 µM) yielded a cell count of 72.5%. In the case of `O=C(O)c1ccc2c(c1)nc(Nc1cccc(Cl)c1)c1ccncc12` + CCCS(=O)(=O)Nc1ccc(F)c(C(=O)c2c[nH]c3ncc(Cl)cc23)c1F [PLX4720] (first compound 2 µM, partner dose 0.4 µM) it was 79.1%.
